Source: the supplement of paper PMC12632987
In all, about 4,500 sequences were measured (“median log2 fold change of GCK-ALFA target abundance (FLAG IP / Myc IP barcode read proportion)”: median about 0.078, lowest 2% from about -0.6 on). The list shows a part of the results.

B1: GBRAP_14_3852 (protein)
chain: IEELIKAVEETAKETKEMAKEVLPEHAEEVNKKIEELAKKIIKKIKEENLNKEEVAELMDEFAEELAKFIKEKGFANETEIAAIRATILNEAALKLDEIE
B2: GBRAP_52_6211 (protein)
chain: MEERLEELARAILEAVRAGDEERARRLLREVAETLDDEELERFAEVLVKLAEEARPEEFDAVFRLAELAEEVLLEEGRDEVLADDLLNRVAAALYKRELE
B3: GBRAP_43_5736 (protein)
chain: DEEVLEAAAETARLALESEELSDETKIRILKDFFEVAADNSKKNKELYKEAAEALEKSDKAEAVEKAAKLAKELAEKEPKYKETLELAAKFLEEKLKKLK
B4: GBRAP_160_4759 (protein)
chain: KEELKKLKEEIKEIFEEHKELLKEVPAAEAPTVVRDAMGEVLMEVFSSEAASEELEEKIGEIADEAEARAAANADAPVEFHIAVLEEAEKKVLELIEKEI
B5: GBRAP_128_3477 (protein)
chain: SAEELLKEAEELAEKIVEAKVEEVPALVKEFAKLLEKADPETQEKIAEILKAKIPKLSEEKLEALYDTLREQAKKANPETQAVLNEIAVEAGQQILELEE
B6: GBRAP_160_4187 (protein)
chain: SESIEELIKEIREIAEEAIKLIEGETHEERIVIVAGAFGQIILLLSENEEISDETVDEVAEIADELIEYLKANPDLTEEEIKELIREATEKIIEIIKENH
B7: GBRAP_78_6741 (protein)
chain: EVEEELDKAIEHLSKAYQLTKEFPQEDRDELTDLLVEAESYLLLAEENGYDLEELEKALEYLEKAIKLVKELNLPEAKPLLEELEKAKEYVEKAIELVKK
B8: GBRAP_11_2769 (protein)
chain: KKEKLKELAKLAEKAAEAVEKLLEEGVDNEELLKKIEELLKKIEKLTKEYGNKDMKKLVEIAKELLEKIKEDPENAEKYAEELRATLRVLSGQALLEAEE
B9: GBRAP_14_3791 (protein)
chain: MEEIRKVLEEAIEEIMALIADLPADVRAALRAALTAIAEETLARIKETGDVDEAMDEGIERAAAAAAEILAPLDPETRANAVAIVRTEWSNAAEEIDELV
B10: GBRAP_184_5038 (protein)
chain: AIKEVTIEAKDLEELKAKLAELEEEMKNFKGDLIVHVKSPKFTKEMVEELMSTLKNMLDKGYISSATVGLDGEMTEEVVDLAVKLADEAGIKVVLALDEE
B11: GBRAP_52_6064 (protein)
chain: SEKKIEEYAEKIAEAIKAGDKEKALELIKKMIKELSLEEIKETLVLAAKKVAELGEEEHELFVEVLEEAEDLLIEAGISEEDALLIVGDAEAALAKAVAA
B12: GBRAP_52_6125 (protein)
chain: MRERARELVLRMVELVKEGREEEARRLAREAVETLDDEELELVADELAELIREASPEEQEYLLRVAEILAEELERAGRDEVLADYVLARAAAALYEKEQA
B13: GBRAP_150_3887 (protein)
chain: DLETLLAIASTAKDLLEESIETGGELLEALLKVVKALVDEAKEVSEELKKLAEEALKLVEEALKLKKEGGPKEEIEKKLKEALKVVEKIEKEVEKLIKEK
B14: GBRAP_160_4305 (protein)
chain: KEEFEKLKKEIKEIAEEALKMIEGQSKEEQKTIVKVALGEIILLVDESPAVSDELEEKIDEIADEAEAYLDANPDLSEEEIKELLKEAVEKILELIDKES
B15: GBRAP_35_5600 (protein)
chain: DTDEFAVDSLIDQIEALIKLVPEEDVETLAAIGNLLIEDAEELIEDLKNNKEGLERILKALKELIEALEKHHKDNPLMQEVIKRVKELAEEAERKIKEIK
B16: GBRAP_160_4802 (protein)
chain: SERVEKVVEIFREELEEALEMARGETNEERVNIFDVELGAAIMEAIELGLLNDEEEEVAAEVRDRLVARIRANPDLTEEELRALAEEAVEELRERLLELE
B17: GBRAP_11_2637 (protein)
chain: KKEKLKKAAETAKKAIEAVKKLIEEGTDDEELQKEIKKLLEELAKLVKEVGDEALKRDVEIAKELWEEAQKDKENAVFYLNLLRAQLEIIRAELEERIEE
B18: GBRAP_184_5241 (protein)
chain: KVVDREVVAKTPEEAKEKLEKVREEARKSGAKVDLFVTLENATPELVKTVFELIKELKEEGLLNFVEVEVESFADEETKELAFDLAHEVGVDALAYNDEG
B19: GBRAP_160_4684 (protein)
chain: SEKVEKFKKFLEEEFAEVVELFDEVSREELAAFTRVAFGQIILEAEELGLLTDKLAEVIDEEEDAIVTAILTRPDLTREEFAAMLEEAAKKIIEELEKES

biological target: GABARAP, O95166; experiment: median log2 fold change of GCK-ALFA target abundance (FLAG IP / Myc IP barcode read proportion) (log2 ratio); each designed protein is fused to an ALFA-tag nanobody in HEK293 cells to bring the named protein to FLAG-tagged glucokinase (GCK); Myc marks an untargeted standard; higher = target protein stabilised (more abundant); conditions: target protein: 3xFLAG-MCP-GCK-ALFA reporter; HEK293 landing pad (RPLP)
Sequence (O95166 whole entry, the tested form may be a part): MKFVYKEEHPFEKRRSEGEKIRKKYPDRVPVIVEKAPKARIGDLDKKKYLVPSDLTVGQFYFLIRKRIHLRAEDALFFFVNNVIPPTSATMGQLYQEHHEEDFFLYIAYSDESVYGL
Procedure, shortened: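 Sequencing of reverse-transcribed, amplified circular RNA barcodes from anti-FLAG and anti-Myc immunoprecipitates provided the readout for an ALFA-nanobody-fused binder library recombined into HEK293 landing-pad cells. Those cells were induced with 2 μg mL^−1 doxycycline, transfected with a plasmid expressing a FLAG-tagged target and a Myc-tagged standard, and lysed after 48 h. Target abundance is the per-binder median log2 ratio of FLAG to Myc barcode read proportions. Only barcodes at a proportion of ≥10^−7 in both replicates and binders with ≥3 barcodes per replicate were kept, with a 10^−6 pseudocount added before the two replicates were pooled.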

Binder	median log2 fold change
B1	0.15
B2	0.114
B3	0.366
B4	-0.0325
B5	0.312
B6	-0.0811
B7	0.243
B8	0.21
B9	0.213
B10	0.0979
B11	-0.457
B12	-0.255
B13	0.344
B14	0.0202
B15	-0.0627
B16	0.0108
B17	0.0575
B18	0.0802
B19	-0.549
